According to PubChem BioAssay AID1671188 (National Center for Advancing Translational Sciences (NCATS), 2021):
Screen size: about 100,000 compounds; about 250 (0.25%) were called active. Inconclusive results, whose numbers are uncertain, are shown with a selection of clear calls. The call rests on the fitted dose curve; in most records, active means well fitted inhibition curve with a large enough effect; inconclusive means small, poorly fitted or top-dose-only effect; inactive means flat fitted curve, though single readings scatter. No potency is given beside an inconclusive call; the fits are too rough.

Each molecule was assayed against Alanine aminotransferase 2 (Homo sapiens) (UniProt Q8TD30) (assay: Primary qHTS assay for inhibitors of Glutamate pyruvate transaminase 2 (GPT2)). Conditions: Recombinant GPT2, coupled pyruvate oxidase/HRP Amplex Red fluorescence; activity change, negative = inhibition: at 57.7 µM (top of the series) unless noted; series mostly up to 57.7 µM.
Sequence of UniProt Q8TD30 (Q8TD30 whole entry, looked up): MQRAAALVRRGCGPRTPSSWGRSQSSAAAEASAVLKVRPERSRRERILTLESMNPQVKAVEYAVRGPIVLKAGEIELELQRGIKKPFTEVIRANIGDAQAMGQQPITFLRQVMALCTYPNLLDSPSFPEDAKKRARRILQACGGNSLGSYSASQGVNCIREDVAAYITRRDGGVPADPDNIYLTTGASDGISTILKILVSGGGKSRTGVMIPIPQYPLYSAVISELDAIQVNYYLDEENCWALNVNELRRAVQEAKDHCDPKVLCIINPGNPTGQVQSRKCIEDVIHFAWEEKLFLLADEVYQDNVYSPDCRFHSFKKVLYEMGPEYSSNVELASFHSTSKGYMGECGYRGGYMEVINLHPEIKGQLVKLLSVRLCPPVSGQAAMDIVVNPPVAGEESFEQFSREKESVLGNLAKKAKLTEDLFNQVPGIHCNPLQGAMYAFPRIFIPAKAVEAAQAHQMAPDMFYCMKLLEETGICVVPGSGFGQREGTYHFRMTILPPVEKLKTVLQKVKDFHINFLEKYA
Procedure, shortened: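 Fluorescence read-out: pyruvate from GPT2 turnover coupled to pyruvate oxidase, HRP and Amplex Red (0.2mM ThPP, 0.2U/mL PO and HRP, 50uM Amplex final). Substrates 250uM a-KG, 2mM L-alanine; enzyme 10ng/uL; 30 min RT.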
Further: nearly all actives have a fitted effect of over 60% in size.
On the % scale 0 is the no-effect control and ±100 the full control effect; potency means the concentration at half of the fitted maximal effect; tags describe the fitted curve by direction and shape.

SMILES	Potency	activity change, negative = inhibition	outcome
COc1cccc(N2CCN(c3nc(C(=O)NCc4ccccc4F)cs3)CC2)c1	inconclusive [inhibitor, single point]		
O[C@@H]1C[C@@H](c2nc(-c3cnccn3)no2)N(Cc2cccs2)C1		inactive: -22.5% [at 88.5 µM]	
COc1cccc(CN2CCNc3cnc(Nc4ccccc4)cc3C2)c1	inconclusive [inhibitor, full curve, poor fit]		
O=C(NC1CCCC1)N1CC(Oc2cccc(-c3nc(-c4ccccc4)no3)c2)C1			inactive
O=C(Cc1c[nH]c2ncc(-c3cccnc3)cc12)NC1CCC1		inactive: -9.89% [at 88.5 µM]	
O=C(c1ccc(F)c(F)c1)N1CCC(n2cc(-c3nc(-c4ccccc4)no3)nn2)CC1		inactive: 3.1%	
COC[C@H]1C[C@@H](NC(=O)C2CCCC2)[C@H](O)[C@@H]1O			inactive [at 88.5 µM]
CCN(CC)C(=O)[C@@H]1CCC[C@@H](NCc2cccc(OC)c2)CN(C)C(=O)C1	inconclusive [inhibitor, single point]		
COc1cncc(Nc2cnc3ccc(-c4ccc(OC)c(OC)c4)nn23)c1		inactive: -3.46% [at 88.5 µM]	
Cc1ccc(-c2cc3c(=O)n(CCNC(=O)C4CCCCC4)ccn3n2)c(C)c1		inactive: -17.8%	
CN(C)CCn1nnnc1SCC1=C(C(=O)O)N2C(=O)[C@@H](NC(=O)Cc3csc(N)n3)[C@H]2SC1	active: 17.8 µM		
O=C(C1CCOCC1)N1CCC(c2noc(-c3ccccn3)n2)C1 (stereo not drawn)			inactive
COCc1noc([C@@H]2CC(F)(F)CN2C(=O)Cc2c(C)noc2C)n1	inconclusive [inhibitor, full curve, poor fit]		
CCNC(=O)[C@@H]1C[C@H](NC(=O)c2ccn(CC)n2)CN1C1CCOCC1	inconclusive [inhibitor, single point]		
c1ccc(-c2cc3c(ccn3Cc3ccncc3)c(N3CCOCC3)n2)cc1	inconclusive [inhibitor, single point]		
COc1ccc(-c2cn3cc(C(=O)NCc4cccc(C(F)(F)F)c4)nc3s2)cc1	inconclusive [inhibitor, single point]		
O=C(NCCN1CCOCC1)c1nc2sccn2c1-c1ccncc1		inactive: -1.22%	
CC(C)NC(=O)N(C1CC1)C1CCOC2(CCN(C(=O)c3ccco3)CC2)C1 (stereo not drawn)	inconclusive [inhibitor, single point]		
C[C@]1(c2nc3c(C(N)=O)cccc3[nH]2)CCCN1	inconclusive [inhibitor, full curve, poor fit]		
CN1Cc2cc(C(=O)N3CCC(C4CCNCC4)CC3)ccc2N[C@@H](CC(=O)O)C1=O	inconclusive [inhibitor, single point]		
Cc1ccc(Cl)cc1NC(=O)N1CC(C(=O)N(C)C)C2(CCOCC2)C1 (stereo not drawn)	inconclusive [inhibitor, partial curve, poor fit]		
COc1cccc(-c2cn3cc(C(=O)NC4CCCCC4)nc3s2)c1	inconclusive [inhibitor, single point]		
O=C(Nc1ccc(Oc2ccccc2)cc1)O[C@@H]1CO[C@H]2[C@@H]1OC[C@@H]2NC(=O)c1ccc(C(F)(F)F)cc1	inconclusive [inhibitor, single point]		

SMILES	Potency	activity change, negative = inhibition	outcome
Cc1nc(C)c(C(=O)N2CCc3nn(Cc4ccccc4)c(=O)n3CC2)s1	inconclusive [inhibitor, single point]		
COCCNc1c(-c2noc(C)c2C(=O)Nc2ccc(OC)cc2)cnn1C			inactive [at 88.5 µM]
CC(C)=CCc1cc2c(cc1O)OC[C@H]1c3ccc(O)cc3O[C@@H]21	inconclusive [inhibitor, full curve, poor fit]		
COc1ccccc1CN1C[C@@H](CO)[C@H](c2ccccn2)C1			inactive
Cc1cc2nc3n(c(=O)c2n1CC(=O)Nc1cccc(Br)c1)CCCC3			inactive
O=C(O)Cc1cccc(OCCCN(Cc2cccc(C(F)(F)F)c2Cl)CC(c2ccccc2)c2ccccc2)c1	active: 24.3 µM		
O=C(CCn1cncn1)N1CCC2(CCC(=O)N(CCc3ccncc3)C2)CC1		inactive: -0.803%	
CCCc1noc(-c2ccn3c(CNC(=O)c4ccc(N(C)C)cc4)nnc3c2)n1	inconclusive [inhibitor, single point]		
COc1ccc(NC(=O)c2cc3c(s2)CN(C2CCCC2)C3)c(C)c1	inconclusive [inhibitor, single point]		
COc1cccc(F)c1C(=O)N1C[C@H](N)C[C@H]1C(=O)NC(C)C	inconclusive [inhibitor, single point]		
N#C/C(=C\c1ccc(O)c(O)c1)C(=O)NCCc1ccccc1	inconclusive [inhibitor, single point]		
Cn1ncc(N2CCC(NC(=O)CCC3CCCC3)CC2)cc1=O		inactive: -2.5%	
O=C(CCc1c[nH]c2ccccc12)NC1CCN(c2ccc(=O)[nH]n2)CC1	inconclusive [inhibitor, single point]		
O=C(Nc1ccc(S(=O)(=O)C(F)(F)F)cc1)C1=CCN(c2ncccc2C(F)(F)F)CC1	inconclusive [inhibitor, partial curve, poor fit]		
Cc1cc(=O)n(CC(=O)Nc2ccc(Br)cc2F)c(N(C)Cc2ccccc2)n1			inactive
CN(C)[C@@H]1C(=O)C(C(=O)NCN2CCCC2)=C(O)[C@@]2(O)C(=O)C3=C(O)c4c(O)cccc4[C@@](C)(O)C3C[C@@H]12 (stereo partly drawn)	inconclusive [inhibitor, single point]		
Oc1cccc2[nH]ccc12	inconclusive [inhibitor, partial curve]		
O=C(NCc1ccccc1F)C1CCCN(Cc2cccc(-c3ccc(F)cc3F)c2)C1 (stereo not drawn)		inactive: 0.532%	
O=C(c1cccnc1)N1CCC2(CC1)C(=NC1CCCC1)NC(=O)N2c1cc(F)cc(F)c1	inconclusive [inhibitor, single point]		
COCc1ccc2c(c1)c(OC(C)(C)C(=O)Nc1cc(C)nn1C)nn2CCC(C)C	inconclusive [inhibitor, full curve, poor fit]		
COc1ccccc1-c1nc2nccc(-c3ccc4c(c3)OCCCO4)n2n1		inactive: -3.61%	
COc1ccc(-n2nc(C3CCCN(C(=O)c4cccc(OC)c4)C3)[nH]c2=O)cc1 (stereo not drawn)	inconclusive [inhibitor, full curve, poor fit]		
O=C(c1c(-c2cncnc2)cc(=O)n2c1CCCC2)N1CCC(Cc2ccccc2)CC1	inconclusive [inhibitor, single point]		

SMILES	Potency	activity change, negative = inhibition	outcome
CC(C)OC(=O)N1CCC(COc2ccc3c(cnn3CC[S+](C)(=O)[O-])c2)CC1	inconclusive [inhibitor, full curve, poor fit]		
COc1ccc(-c2cc(N3CCCC(NC(=O)c4ccccc4Br)C3)n[nH]2)cc1 (stereo not drawn)	inconclusive [inhibitor, partial curve, poor fit]		
COc1ccc(C(=O)N2CCc3ccc(C(=O)NC(C)C)cc32)cc1	inconclusive [inhibitor, single point]		
Cc1ccc(CCNC(=O)c2nnn3c2COC(c2ccc(F)cc2)C3)cc1 (stereo not drawn)	inconclusive [inhibitor, single point]		
CCC(NC(=O)C1CCN(C(=O)C2CCC2)CC1)c1nc(C)c(C)s1 (stereo not drawn)	inconclusive [inhibitor, single point]		
O=C(C1CCCNC1)N1CCCn2cc(-c3ccccc3F)nc21 (stereo not drawn)	inconclusive [inhibitor, partial curve, poor fit]		
CN(Cc1cnccn1)c1ccc(-c2nc(CCCc3ccccc3)no2)cn1		inactive: -7.5%	
COc1ccc(C(=O)N2CCN(C(=O)c3nc4cccnc4n(C4CC4)c3=O)CC2)cc1			inactive
O=C(CCn1cnnn1)N1CCC(N2C(=O)C3(CCCC3)C2c2ccccc2)CC1 (stereo not drawn)			inactive
COc1ccc(-c2cc(N3CCCN(C(=O)c4ccc(OC)cc4OC)CC3)n[nH]2)cc1	inconclusive [inhibitor, partial curve]		
O=C(Nc1ccccc1)N1CCC(OCCOc2cccnc2)CC1			inactive
COc1ccc(C(=O)NC2CCCc3c2[nH]c2ccccc32)cc1OC (stereo not drawn)		inactive: -20%	
COC(=O)c1cc(Cl)ccc1NS(=O)(=O)C(F)(F)F	inconclusive [inhibitor, single point]		
Fc1ccccc1Nc1cnc2ccc(-c3ccccc3)nn12	inconclusive [inhibitor, single point]		
O=C(NC1CCN(c2nc3ncccc3o2)C1)c1ccc(C(F)(F)F)cc1 (stereo not drawn)			inactive
O=C(c1cccc(Cl)c1)N1CCC(n2cc(-c3nc(-c4ccccc4)no3)nn2)C1 (stereo not drawn)			inactive
COc1cc(F)ccc1-c1nc(-c2c(C)noc2C)cc2c1cc(C)n2C	inconclusive [inhibitor, single point]		
CS(=O)(=O)N1CC(F)(F)C[C@H]1c1nc(C2CC2)no1	inconclusive [inhibitor, partial curve, poor fit]		
COCCNc1nc2c(S(=O)(=O)c3ccc(C)c(C)c3)nnn2c2ccccc12	inconclusive [inhibitor, single point]		
CCOc1ccccc1CN1CCCN(S(=O)(=O)c2ccccc2)CCC(=O)NCC1	inconclusive [inhibitor, single point]		
CC(C)(C)OC(=O)NC(CN)c1ccccc1Cl (stereo not drawn)			inactive [at 88.5 µM]
COc1ccc(N2CCN(C(=O)Cn3c(-c4cnccn4)nc(C)c(C)c3=O)CC2)cc1	inconclusive [inhibitor, partial curve, poor fit]		
